The record followed here is paper PMC7819943, “Rice protein-binding microarrays: a tool to detect cis-acting elements near promoter regions in rice”.

The list shows a part of the results.

The assay deals with T1, OsWOX13 (Oryza sativa, UniProt Q5QMM3 1-267).
T1 sequence: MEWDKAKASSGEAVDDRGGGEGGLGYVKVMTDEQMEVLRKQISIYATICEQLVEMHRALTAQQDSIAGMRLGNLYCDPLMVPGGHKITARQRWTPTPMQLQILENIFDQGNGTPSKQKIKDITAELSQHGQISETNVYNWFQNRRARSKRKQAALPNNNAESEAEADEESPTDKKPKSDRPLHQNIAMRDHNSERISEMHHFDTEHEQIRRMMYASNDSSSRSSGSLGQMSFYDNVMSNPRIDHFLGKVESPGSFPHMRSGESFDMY
Description: protein-binding microarray (RPBM); PBS, 2% BSA, 51.3 ng/ul salmon testes DNA, 50 uM zinc acetate, 200 nM TF, 25 C, 1 h; high values mean tight binding. As to conditions: protein: recombinant; tags: N-terminal polyhistidine and DsRed monomer fusion (pET32a); label: CyDye5-dUTP incorporated in the synthesized complementary strand; 3' TTTTT single-stranded linker to array surface; dsDNA, one strand shown. A digest of the protocol: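 The binding signal is fluorescence intensity per feature, in arbitrary units, read on an Axon 4000B scanner. Polyhistidine- and DsRed-tagged transcription factors (N-terminal fusions) from E. coli BL21-CodonPlus were purified on Ni–NTA and applied at 200 nM for 1 h at 25 °C to a double-stranded, BSA-blocked custom Agilent array in buffer with 50 µM zinc acetate.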
With “AAGCAAATTAAGAAGATTGCCCACTTTCGAAAGCGCCAAGCGGAGTCACCTAGTGCAG”, the binding signal is 9780 fluorescence intensity (a.u.).
The value for “TGTAATCTATCAAGAATCCATTACTGAGACACAAATGCATCGGAGTCACCTAGTGCAG” was 4280 fluorescence intensity (a.u.).
The same measure for “TGATGATGCACGCTGATTGACCGTTCTATGCAGATCCCATCGGAGTCACCTAGTGCAG”: 26900 fluorescence intensity (a.u.); for “AGTTTTCAAAATTTGACTTTAAAATTTAAATCTTAAATCACGGAGTCACCTAGTGCAG”: 3970 fluorescence intensity (a.u.); for “ATTGATGAACTGATATGCGCTGAGATTCCTGACAGAGACACGGAGTCACCTAGTGCAG”: 7660 fluorescence intensity (a.u.).
With “CCTTATTGAAATGAAGGTTAACTAAGTGTCCTTCCTAATGCGGAGTCACCTAGTGCAG”, the binding signal is 3550 fluorescence intensity (a.u.).
Turning to “ATTAATTAGTCTTAATAGATTCGTCTCGCAATTTCCTGACCGGAGTCACCTAGTGCAG”, the binding signal was 45700 fluorescence intensity (a.u.).
The value for “CTCAATAATTAAGTTCTTGATTAACATTGATATTACTTTCCGGAGTCACCTAGTGCAG” was 24600 fluorescence intensity (a.u.).
The value for “TGGAACATTGTTGATTGGCGAGCTGGCACGCATGCTAGGTCGGAGTCACCTAGTGCAG” was 18600 fluorescence intensity (a.u.); that for “TTAAATTGGCTATATATGTTTAGTTGGCTATACTAATTACCGGAGTCACCTAGTGCAG” was 18900 fluorescence intensity (a.u.).
The value for “AGGTGATTTGTCAAGTGAGGACTTTGGAGATTGTGATTGGCGGAGTCACCTAGTGCAG” was 25100 fluorescence intensity (a.u.); that for “TTACTGATTTACTGTTAATAAGACAGGCAACACAGACTTACGGAGTCACCTAGTGCAG” was 21500 fluorescence intensity (a.u.); that for “GCCAATTTAACAGTCATTGTACCAAATTGTTCTCTATGTTCGGAGTCACCTAGTGCAG” was 8670 fluorescence intensity (a.u.).
“TTCTTTCTTAATTACAGTCAGTCTTAAAAGTGAAATTTTGCGGAGTCACCTAGTGCAG”: the binding signal was 10100 fluorescence intensity (a.u.).
The same measure for “TGGTTGATGGCTTTTGATTCAATTGATATCAAAACGATAACGGAGTCACCTAGTGCAG”: 11800 fluorescence intensity (a.u.); for “GTAAATTTGTTCCGGCCTGAACTTATTGGAGACGCTCACTCGGAGTCACCTAGTGCAG”: 8600 fluorescence intensity (a.u.).
As for “AGTTAACTCGACAATCATTGGGTGGTGTTCAGGTAACTTGCGGAGTCACCTAGTGCAG”, the binding signal was 14700 fluorescence intensity (a.u.).
The same measure for “GGGTCCTTGATTTCCTGTGAATCACTCATTTGATACAGAACGGAGTCACCTAGTGCAG”: 4610 fluorescence intensity (a.u.); for “GATTTTGTCATCAGTGACCACTAATCACTGACCAAGACCACGGAGTCACCTAGTGCAG”: 4240 fluorescence intensity (a.u.).
Take “ATATCAATTTCCTTAACCGAATATAGCAAGAATCCGACAACGGAGTCACCTAGTGCAG”: the binding signal was 3870 fluorescence intensity (a.u.).
Turning to “CAAAATTTAACTTCTATAAATTGTAACAAAAGTAACAAATCGGAGTCACCTAGTGCAG”, the binding signal is 8360 fluorescence intensity (a.u.).
Consider “CTTAACTTGATAATCTTTCTTAAGTCCCTAAATGTAAGTTCGGAGTCACCTAGTGCAG”, for which the binding signal is 6620 fluorescence intensity (a.u.).
The same measure for “TATAAGCCAGTTGGGATCAATCAGGCTAGCAAACAGAGGACGGAGTCACCTAGTGCAG”: 4530 fluorescence intensity (a.u.); for “GCTATGACCATTTCACTTAATTAAGTAACTGAATAAATATCGGAGTCACCTAGTGCAG”: 9310 fluorescence intensity (a.u.); for “GTAGTTTTCATTAATGTTTAATCAGCTCTATATATTTGAACGGAGTCACCTAGTGCAG”: 3320 fluorescence intensity (a.u.).
The same measure for “AAATACTAGAATGATTTACATTATGAAACGGAGGGAGTACCGGAGTCACCTAGTGCAG”: 4500 fluorescence intensity (a.u.).
The value for “CTTTAGATGAAAATTAAGTTCGAACCAAACCATTGGTGCACGGAGTCACCTAGTGCAG” was 5140 fluorescence intensity (a.u.); that for “CTTTCCAAATTAGTTGCGGGAATGGAATCCTATCAATCTCCGGAGTCACCTAGTGCAG” was 3900 fluorescence intensity (a.u.).
In the case of “ATCAATTATCTATGCAGAAGAAAATATATATCCCTCCATGCGGAGTCACCTAGTGCAG”, the binding signal was 3520 fluorescence intensity (a.u.).
The value for “TTTCCTAATTATAAAGGCGCGCGGAAGGGGCGAGCGCTGACGGAGTCACCTAGTGCAG” was 4850 fluorescence intensity (a.u.).
The same measure for “TTTGATTTGGCCATATGAATACTCCCAACTTTCATACCGACGGAGTCACCTAGTGCAG”: 14900 fluorescence intensity (a.u.); for “ACACTACTAATTACCAACATATGTGGCACGAGAACATCTACGGAGTCACCTAGTGCAG”: 6460 fluorescence intensity (a.u.).
The same measure for “GATTTAACGTTACATATCAATCTAAGAGTAGGATGGTACACGGAGTCACCTAGTGCAG”: 9230 fluorescence intensity (a.u.).
On to “ATAAAACTGGTAAATTGATGAGCGCGTCTAACGGCGGTCGCGGAGTCACCTAGTGCAG”, for which the binding signal is 42100 fluorescence intensity (a.u.).
The same measure for “TGGATTGATACTTTGAGGTATAAAATAGTTTGAAGTGATACGGAGTCACCTAGTGCAG”: 6880 fluorescence intensity (a.u.).
The value for “TTATTTGCATTGATTTAATAGGGTTTACTCTTGCTTTGCACGGAGTCACCTAGTGCAG” was 7870 fluorescence intensity (a.u.); that for “CTAAGCAATCGTGCTTCTGTCAACACATGTGATTAGGGATCGGAGTCACCTAGTGCAG” was 6230 fluorescence intensity (a.u.).
As for “CGTGCGATTAGATTAATCTTGGAGATTTATCTTAACACGACGGAGTCACCTAGTGCAG”, the binding signal is 13000 fluorescence intensity (a.u.).
The same measure for “AGGGTTGCGAGGTGGAGGTGATTGGCTCTACGCCATGGCGCGGAGTCACCTAGTGCAG”: 4420 fluorescence intensity (a.u.); for “CGTTCGTCAATTTACCCGCGACAATAAATGTTCCATTGAGCGGAGTCACCTAGTGCAG”: 9650 fluorescence intensity (a.u.); for “CCCAAATATACCAATTATTTATTCACCATCTCAACCCTAGCGGAGTCACCTAGTGCAG”: 9490 fluorescence intensity (a.u.).
With “AGGCAAATTGTATATACTAAACACAAGTGCCCCGAAAAGTCGGAGTCACCTAGTGCAG”, the binding signal was 3760 fluorescence intensity (a.u.).
